# The campaign covered roughly 44,000 compounds. About 340 (0.77%) were called active. Inconclusive results (about 5%) are left out. Calls follow the shape of the dose curve; as a rule, active = well fitted inhibition curve with a large enough effect; inconclusive = small, poorly fitted or top-dose-only effect; inactive = flat fitted curve, though single readings scatter. The list shows a part of the results.
# Assay: Acumen qHTS Assay for Inhibitors of the mTORC1 Signaling Pathway in MEF (Tsc2-/-, p53-/-) Cells: Sytravon; also: nearly all actives have a fitted effect of over 50% in size;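 as to activity change, negative = inhibition: plate controls were DMSO for no effect and rapamycin for full effect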
# Conditions: phospho-rpS6 immunofluorescence/PI, 24 h; series mostly up to 38.3 µM; activity change, negative = inhibition: at the top concentration
# Procedure, shortened: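 Read-out: phospho-S6 Alexa-488 intensity over PI intensity per well, scored as % active cells using thresholds from rapamycin (7.5 nM) and DMSO controls. Tsc2-/-, p53-/- MEFs exposed to compound for 24 h; PI cell count recorded as viability.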
# Potency is read from the fitted curve at half-maximal effect.
SMILES,"activity change, negative = inhibition",Potency
CCOC(=O)c1c(Nc2ccccc2)nnc(-c2ccccc2)c1-c1ccccc1,inactive: -17.6%,
O=C(Cn1c(=O)oc2ccccc21)NCc1ccc(Cl)cc1,inactive: -8.74%,
CCN(c1ccccc1)S(=O)(=O)c1cc(C(=O)Nc2ccc(Br)cc2)ccc1F,,active: 14.7 µM
Cc1ccc(-n2ncc3c(NCCc4ccccc4)ncnc32)cc1,inactive: 13.7%,
CCOc1ccc(S(=O)(=O)n2nc(C)c(S(=O)(=O)N3CCCCCC3)c2C)cc1,inactive: 7.59%,
Cc1cc2oc(C(=O)N(Cc3ccccc3)C3CCS(=O)(=O)C3)cc(=O)c2cc1C (centres undefined),inactive: -5.91%,
CN1CCN(c2ncc3c(n2)CCN(Cc2ccccc2Cl)C3)CC1,inactive: 25%,
CCc1ccc(-n2c(=O)c3cccnc3n2CC(=O)N(CC)c2cccc(C)c2)cc1,inactive: -26.2%,
COc1cccc(C(=O)Nc2ccc3c(c2)CCCN3C(=O)c2cccs2)c1OC,inactive: 0%,
Cc1ccc(NC(=O)CN2C(=O)C(c3ccccc3)=NC2(C)C)cc1C,inactive: -6.18%,
Cc1cc(-c2nc3ncccc3o2)ccc1NC(=O)COc1ccc(C(C)(C)C)cc1,inactive: -4.48%,
CCc1ccc(NC(=O)CSc2nnc(-c3nonc3NC(C)=O)n2-c2ccccc2)cc1,inactive: 3.41%,
Cc1c2cnn(-c3ccccc3)c(=O)c2c(C)n1CC(=O)NCc1ccc(Cl)cc1,inactive: -4.35%,
CCOc1ccc(Nc2c(S(=O)(=O)c3ccc(C)cc3)cnc3ccccc23)cc1,inactive: -13.9%,
CC1=C(C(N)=O)C(c2ccc(C(C)C)cc2)n2nc(SCc3ccccc3F)nc2N1 (centres undefined),inactive: 7.92%,
CCn1cc2nc(SCc3cccc(C(F)(F)F)c3)n(CCc3ccccc3)c(=O)c2n1,inactive: 0%,
CCOc1ccc(NC(=O)Cn2cnc3nc4c(cc3c2=O)CCCC4)cc1,inactive: 1.63%,
COc1ccc(CCNC(=O)Cn2c(C)c3cnn(-c4ccccc4)c(=O)c3c2C)cc1OC,inactive: -2.07%,
COc1ccc(-c2cc(C)no2)cc1S(=O)(=O)Nc1cccc(C(F)(F)F)c1,inactive: 5.35%,
Cc1c(CCNC(=O)c2ccc(C(F)(F)F)cc2)sc2nc(-c3ccc(F)cc3)nn12,inactive: 0.738%,
COc1ccc(-c2[nH]c(-c3ccc(F)cc3)nc2SCC(=O)Nc2ccc(OC)c(OC)c2)cc1,inactive: 3.53%,
Fc1ccc(-n2ncc3c(Nc4ccc(Oc5ccc(Cl)cc5)cc4)ncnc32)cc1,inactive: 9.36%,
Cc1ccc(N2CC(c3nnc(Cc4ccc(F)cc4Cl)o3)CC2=O)cc1 (centres undefined),inactive: -15.3%,
CCCCNC(=O)c1ccc(-c2nc(CS(=O)(=O)c3ccc(C)cc3)c(C)o2)cc1,inactive: -6.45%,

SMILES,"activity change, negative = inhibition",Potency
CC1=C(c2ccc(Cl)cc2)S(=O)(=O)N=C1N1CCN(c2cccc(C)c2)C(C)C1 (centres undefined),inactive: 0.496%,
COC(=O)CNC(c1ccccc1)c1cc(Br)ccc1NC(=O)c1cc(OC)c(OC)c(OC)c1 (centres undefined),inactive: 0.572%,
Cc1ccc(-c2csc(=Nc3ccccc3)n2CCCO)cc1,inactive: -2.04%,
CCOC(=O)c1ccc(NC(=O)Cn2nnc(-c3ccc(C(F)(F)F)cc3)n2)cc1,inactive: 9.63%,
CNC(=O)c1ccc(NC(=O)c2nsc3ccccc23)cc1,inactive: 1.53%,
CCOC(=O)c1ccc(OCC2c3cc(OC)c(OC)cc3CCN2C(=O)Cc2ccc(OC)c(OC)c2)cc1 (centres undefined),inactive: 13.2%,
COc1ccc2c(c1)c(N1CCCC1=O)c(C(=O)Nc1ccc(Cl)cc1C)n2C,inactive: -1.43%,
CCN1Cc2cccc(C(=O)Nc3ccc(F)cc3)c2C1=O,inactive: -4.71%,
COC(=O)c1ccc(OC)c(Cn2c(=O)n(-c3cccc(Cl)c3)c(=O)c3c2c2cc(C)ccc2n3C)c1,inactive: -22.1%,
CCOC(=O)c1c(-c2ccc(C)cc2)csc1NC(=O)c1ccc(C(C)(C)C)cc1,inactive: -7.41%,
CCc1ccc(NC(=O)CCS(=O)(=O)c2ccc3c(c2)oc(=O)n3C)cc1,inactive: 6.13%,
Cc1ccc(C)c(CN2C(=O)c3ccccc3Sc3ccc(C(=O)NC4CCCC4)cc32)c1,inactive: 0%,
Cc1ccc(-n2ncc(C(=O)N3CCc4ccccc4C3)c2C2CCN(C(=O)OC(C)(C)C)CC2)cc1C,inactive: -13.4%,
Cc1ccc(N2CCN(C(=O)CCc3c(C)nc4ncnn4c3C)CC2)c(C)c1,inactive: -12.8%,
Cc1cc(C)c(C#N)c(SCC(=O)Nc2ccccc2C#N)n1,inactive: 2.65%,
COc1ccccc1-c1noc(-c2ccc(NCCc3ccccc3)c([N+](=O)[O-])c2)n1,inactive: -0.582%,
COc1cccc(CNC(=O)CSc2ncc(S(=O)(=O)c3ccc(C)c(Cl)c3)c(=O)[nH]2)c1,inactive: -2.69%,
CCn1cc(C(=O)NCCc2ccc(OC)c(OC)c2)c(=O)c2cc(S(=O)(=O)N3CCc4ccccc4C3)ccc21,inactive: 0.381%,
COc1ccc(-c2nc(CN3CCC(C(=O)NCCN(CC(C)C)CC(C)C)CC3)c(C)o2)cc1OC,inactive: -7.59%,
CC(C)(C)C(=O)OCc1cc(=O)n2nc(C3CCCCC3)sc2n1,inactive: 8.45%,
COC(=O)c1ccccc1NC(=O)CN1C(=O)COc2ccccc21,inactive: 0.566%,
Cc1ncc(CO)c2c1Oc1nc(-c3ccccc3F)nc(SCC(=O)N3CCCCC3)c1C2,inactive: -3.27%,
COc1ccc(NC(=O)CSc2nc3c(c(=O)[nH]2)CN(Cc2ccccc2)CC3)cc1Cl,inactive: 3.71%,
CCc1ccc(NC(=O)Cn2c(=O)n(Cc3ccccc3)c(=O)c3oc4ccccc4c32)cc1,inactive: 2.26%,

SMILES,"activity change, negative = inhibition",Potency
COc1cccc2cc(-c3nc(Cl)c4c5c(sc4n3)CC(C)CC5)c(=O)oc12 (centres undefined),inactive: 2.78%,
Cc1ccc(S(=O)(=O)c2cn(C)c3cc(N4CCCC4)c(F)cc3c2=O)c(C)c1,inactive: -4.76%,
CCc1ccc(NC(=O)c2cnn(-c3c(C)cccc3C)c2C2CCNCC2)cc1,inactive: 0%,
CCOc1cc(C(=O)Nc2c(NC)c3ccccc3oc2=O)cc(OCC)c1OCC,inactive: 0.595%,
O=C1CN(C(=O)c2ccccc2)C(c2ccc(F)cc2)c2cc(Br)ccc2N1 (centres undefined),inactive: -18.2%,
CCc1cccc(C)c1NC(=O)Nc1csc2c1CCCC2,inactive: -0.391%,
Cc1ccc(C)c(NC(=O)CSc2nncn3c2cc2sccc23)c1,inactive: -0.142%,
COc1ccc2sc(N(Cc3cccnc3)C(=O)c3ccco3)nc2c1,inactive: -5.88%,
CCOCCCNC(=O)c1c(NC(=O)c2cc(=O)c3cc(C)c(C)cc3o2)sc2c1CCC2,inactive: -20.3%,
CCn1c(=O)cc(OCC(=O)NCc2ccc(F)cc2Cl)c2ccccc21,inactive: -0.449%,
COc1ccc(CN2C(=O)N(c3ccc(F)cc3)C(=O)C2CC(=O)Nc2ccccc2)cc1 (centres undefined),inactive: 0.431%,
CCOc1ccc(N2CC(c3nc4ccccc4n3CCC3CCCCC3)CC2=O)cc1 (centres undefined),inactive: 8.03%,
CCCNC(=O)C1CCN(c2cc(C)nc3c(-c4ccc(OC)c(OC)c4)c(C)nn23)CC1,inactive: -0.873%,
Cc1ccc(CCNc2nc3ccccc3c3nc(-c4ccccc4)nn23)cc1,inactive: -1.95%,
Cc1oc(-c2ccc(Cl)cc2)nc1CSc1nnc(C)n2c1cc1sccc12,inactive: -6.44%,
O=C(NCCc1c[nH]c2ccccc12)Nc1ccccc1C(F)(F)F,inactive: -4.71%,
COC(=O)c1cc(NC(=O)Cn2ncc3c2-c2ccccc2OC3)cc(C(=O)OC)c1,inactive: -8.09%,
COc1ccc(-c2noc(-c3ccc(NC4CCCCC4)c([N+](=O)[O-])c3)n2)cc1OC,inactive: 0.387%,
Cc1cccc(CS(=O)(=O)CC2Nc3ccc(C(=O)NCc4ccccc4Cl)cc3NC2=O)c1 (centres undefined),inactive: 0.472%,
Cc1ccc(-n2c(=O)c3c(C)c(C)sc3n(CC(=O)c3ccc(Cl)cc3)c2=O)cc1C,inactive: -0.946%,
CCCn1c2ccccc2c2cnn(CC(=O)N(CCCOC(C)C)Cc3ccco3)c(=O)c21,inactive: -0.025%,
COc1cc(Nc2ncnc3onc(-c4ccc(Cl)cc4)c23)cc(OC)c1,inactive: -9.15%,
COc1cc(C(=O)Nc2ccc(OCc3cc(=O)n4ccc(C)cc4n3)cc2)cc(OC)c1OC,inactive: -6.3%,
N#Cc1ccccc1CSc1nnc(-c2ccccc2)o1,inactive: 1.05%,

SMILES,"activity change, negative = inhibition",Potency
Cc1ccn2c(Nc3ccc4c(c3)OCO4)c(-c3ccco3)nc2c1,inactive: 3.79%,
O=C(Cn1c(=O)n(Cc2ccc(F)cc2)c(=O)c2sc3ccccc3c21)NCc1ccccc1Cl,inactive: 0.459%,
COc1ccc(N2CCN(C(CNS(=O)(=O)c3c(C)cc(C)cc3C)c3ccco3)CC2)cc1 (centres undefined),inactive: -5.6%,
Cc1cccc(N2CCN(S(=O)(=O)c3c(C)[nH]c(=O)[nH]c3=O)CC2)c1C,inactive: -2.36%,
COc1ccc(OC)c(NC(=O)CSC2=Nc3ccccc3C3=NC(CCC(=O)NCc4ccco4)C(=O)N23)c1 (centres undefined),inactive: -7.48%,
O=S1(=O)c2ccccc2N(Cc2ccc(Cl)cc2F)c2ccccc21,inactive: 1.99%,
CN(C)S(=O)(=O)c1ccc2c(c1)c(=O)c(C(=O)N1CCN(c3cccc(Cl)c3)CC1)cn2C,inactive: -2.53%,
CCOC(=O)c1ccc(NC(=O)CN(c2ccc(C)cc2)S(=O)(=O)c2ccc(OC)cc2)cc1,inactive: -9.92%,
CCC(=O)Nc1nnc(S(=O)(=O)N(C)Cc2ccc(Cl)cc2)s1,inactive: 0.257%,
CCOc1ccccc1NC(=O)CSC1=Nc2ccccc2C2=NC(CC(=O)NC3CCCCC3)C(=O)N12 (centres undefined),inactive: -15.8%,
COc1ccc(N2CCN(CCCNC(=O)Nc3ccccc3Cl)CC2)cc1,inactive: -8.76%,
COc1ccc(CCNC(=O)CN(c2ccc(C)cc2)S(=O)(=O)c2ccc(OC)cc2)cc1,inactive: -0.853%,
CCOc1ccc(-c2nc3c(c(SCC(=O)N4CCCCC4)n2)Cc2cc(C)ccc2O3)cc1,inactive: 0.93%,
CCOc1ccc(CN2C(=O)c3ccccc3Sc3ccc(C(=O)N4CCN(C)CC4)cc32)cc1,inactive: 0.425%,
CCC(Sc1nc2cc(OC)c(OC)cc2c(=O)n1Cc1ccc(Cl)cc1)C(=O)NCCOC (centres undefined),inactive: 0.537%,
Cc1cc(NC(=O)c2cccnc2)cc(-c2nc3cc(Cl)ccc3o2)c1O,inactive: 0.084%,
Brc1ccc(-c2ccc(CNCCSc3nnnn3-c3ccccc3)o2)cc1,inactive: -5.31%,
O=C(NC1CC(=O)N(c2ccccc2)C1)c1ccc(S(=O)(=O)N2CCOCC2)cc1 (centres undefined),inactive: -2.83%,
COc1ccc(OC)c(NC(=O)CSc2n[nH]c(-c3ccccc3Cl)n2)c1,inactive: 7.98%,
c1ccc(-c2cn(-c3ccccc3)c3ncnc(N4CCN(c5ccccc5)CC4)c23)cc1,inactive: 4.12%,
CCOC(=O)CC(NC(=O)c1cc2cc(Cl)ccc2oc1=O)c1ccc(C)cc1 (centres undefined),inactive: 18.1%,
Cc1cc(C)cc(Oc2c(C(F)(F)F)oc3c(CN4CCCC(C)C4)c(O)ccc3c2=O)c1 (centres undefined),inactive: 5.5%,
